The whole screen tested about 310,000 compounds, of which about 2,200 (0.71%) showed an effect of 50% or more. Effects have a minus sign here. Some of the results follow.
The molecules below were run against human ether-à-go-go-related gene (hERG) potassium channel (human, UniProt Q12809) (assay: primary screen, population patch clamp on CHO cells stably expressing hERG).
Chain of human ether-à-go-go-related gene (hERG) potassium channel (Q12809 whole entry, looked up): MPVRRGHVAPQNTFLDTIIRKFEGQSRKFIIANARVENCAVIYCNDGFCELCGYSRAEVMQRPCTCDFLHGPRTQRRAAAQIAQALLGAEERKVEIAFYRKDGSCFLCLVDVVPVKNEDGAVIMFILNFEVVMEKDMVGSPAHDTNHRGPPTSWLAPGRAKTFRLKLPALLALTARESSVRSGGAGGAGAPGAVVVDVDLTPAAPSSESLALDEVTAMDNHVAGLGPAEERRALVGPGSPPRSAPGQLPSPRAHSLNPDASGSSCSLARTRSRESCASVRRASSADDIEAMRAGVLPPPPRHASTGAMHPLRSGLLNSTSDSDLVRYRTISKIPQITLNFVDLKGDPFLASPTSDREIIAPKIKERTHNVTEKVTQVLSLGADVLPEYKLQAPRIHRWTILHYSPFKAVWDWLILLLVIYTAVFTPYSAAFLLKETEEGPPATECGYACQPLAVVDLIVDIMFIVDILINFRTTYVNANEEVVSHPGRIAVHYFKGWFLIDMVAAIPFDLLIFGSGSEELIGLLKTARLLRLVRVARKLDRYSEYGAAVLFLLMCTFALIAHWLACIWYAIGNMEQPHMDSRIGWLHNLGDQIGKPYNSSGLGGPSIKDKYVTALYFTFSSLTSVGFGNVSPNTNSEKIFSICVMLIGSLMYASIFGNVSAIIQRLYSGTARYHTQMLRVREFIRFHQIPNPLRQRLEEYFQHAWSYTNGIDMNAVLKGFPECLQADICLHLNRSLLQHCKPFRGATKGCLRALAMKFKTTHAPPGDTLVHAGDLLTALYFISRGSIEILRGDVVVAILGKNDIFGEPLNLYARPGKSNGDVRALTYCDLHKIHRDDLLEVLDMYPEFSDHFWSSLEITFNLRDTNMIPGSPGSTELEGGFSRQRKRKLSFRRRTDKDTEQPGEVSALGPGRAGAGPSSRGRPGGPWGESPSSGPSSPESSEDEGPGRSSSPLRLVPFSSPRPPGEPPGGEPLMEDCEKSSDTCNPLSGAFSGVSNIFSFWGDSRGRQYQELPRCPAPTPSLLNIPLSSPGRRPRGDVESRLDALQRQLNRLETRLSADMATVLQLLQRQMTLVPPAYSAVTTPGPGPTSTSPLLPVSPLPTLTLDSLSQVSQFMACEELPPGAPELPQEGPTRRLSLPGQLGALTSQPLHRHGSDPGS
For O=C(COC(=O)C1CCN(c2ccc(C(F)(F)F)cn2)CC1)NCCc1ccccc1, the “hERG current change (%, negative = inhibition) at 1uM” value was 4.05%. In the case of Cc1nn2c(-c3ccccc3)ccnc2c1-c1ccccc1, the “hERG current change (%, negative = inhibition) at 1uM” value is reported as 7.57%. With N#C/C(=C\c1cc2c(cc1Br)OCO2)c1ccc(C(=O)O)cc1 the “hERG current change (%, negative = inhibition) at 1uM” value was 13.6%. In the case of O=C(CCN1C(=O)C2C3C=CC(C3)C2C1=O)Nc1nccs1 (stereo not drawn), the “hERG current change (%, negative = inhibition) at 1uM” value is reported as 5.91%. In the case of CCOC(=O)C(=O)Nc1ccccc1C(=O)OCC, the “hERG current change (%, negative = inhibition) at 1uM” value is reported as 0.567%. For CCOc1ccc2c(c1)C(N(CCN1CCOCC1)C(=O)Nc1ccc(OC)cc1OC)CC(C)(C)O2 (stereo not drawn), the “hERG current change (%, negative = inhibition) at 1uM” value was 4.51%. For Cc1ccc(S(=O)(=O)NC(C)C(=O)Nc2ccccc2C(=O)N2CCCC2)cc1 (stereo not drawn), the “hERG current change (%, negative = inhibition) at 1uM” value was 15.8%. In the case of COc1ccccc1-n1cc(C(=O)c2cc(Cl)ccc2O)cc(C#N)c1=O, the “hERG current change (%, negative = inhibition) at 1uM” value is reported as 8.64%. With CCOC(=O)C1CCN(Cc2ccc(O)c3ncccc23)CC1 the “hERG current change (%, negative = inhibition) at 1uM” value was 10.4%. With Cc1cc(Oc2ccc([N+](=O)[O-])cc2)nc(N2CCOCC2)n1 the “hERG current change (%, negative = inhibition) at 1uM” value was 14.8%. With CC(=O)C1=C(C)NC(C)=C(C(C)=O)C1c1cn(-c2ccccc2)nc1-c1cccs1 the “hERG current change (%, negative = inhibition) at 1uM” value was 8.37%. For CCOC(=O)COc1ccc2c(c1)C(=O)CC1(CCN(C(C)=O)CC1)O2, the “hERG current change (%, negative = inhibition) at 1uM” value was -1.98%. O=C(Nc1cccnc1)c1ccc2c(c1)C(=O)N(CC1CCCO1)C2=O (stereo not drawn) was tested, and the “hERG current change (%, negative = inhibition) at 1uM” value was 9.2%. In the case of O=C(CN1C(=O)c2ccc([N+](=O)[O-])cc2C1=O)NCC1CCCO1 (stereo not drawn), the “hERG current change (%, negative = inhibition) at 1uM” value is reported as 10.3%. For CCN1CCN(CC(=O)Nc2ccc(C)cc2C)C(=O)C1=O, the “hERG current change (%, negative = inhibition) at 1uM” value was 11.9%. Cc1cccc(C)c1OCC(=O)Nc1cccc(S(=O)(=O)N2CCCC2)c1 was tested, and the “hERG current change (%, negative = inhibition) at 1uM” value was 11.1%. With Cl.ON=C1c2cc(OCCN3CCCCC3)ccc2-c2ccc(OCCN3CCCCC3)cc21 the “hERG current change (%, negative = inhibition) at 1uM” value was -17.2%. With N#Cc1cc2c(N)c(C(=O)Nc3ccccc3)sc2nc1N the “hERG current change (%, negative = inhibition) at 1uM” value was 13.3%. In the case of CCS(=O)(=O)c1nc(NC(C)=O)n[nH]1, the “hERG current change (%, negative = inhibition) at 1uM” value is reported as 14.7%. In the case of COc1ccccc1C1CCN(C(=O)c2cccc([N+](=O)[O-])c2)CC1, the “hERG current change (%, negative = inhibition) at 1uM” value is reported as 5.11%. With Cc1ccccc1N1CCN(C2CCCN(C(=O)CCC3(C)CC3)C2)CC1 (stereo not drawn) the “hERG current change (%, negative = inhibition) at 1uM” value was -15.1%. For CCOC(=O)C(NS(=O)(=O)c1ccccc1)(C(F)(F)F)P(=O)(OCC(C)C)OCC(C)C (stereo not drawn), the “hERG current change (%, negative = inhibition) at 1uM” value was 7.35%. O=C(NCc1ccc2c(c1)OCO2)c1ccc(CN2CCOCC2)cc1 was tested, and the “hERG current change (%, negative = inhibition) at 1uM” value was 13.7%. In the case of COc1cc2c(=O)n(CCC(=O)NCC3CCCO3)c(=O)n(CC(=O)c3ccc(Cl)cc3)c2cc1OC (stereo not drawn), the “hERG current change (%, negative = inhibition) at 1uM” value is reported as 8.95%. With COC(=O)[C@@H](NC(=O)Nc1ccc(OC(F)(F)F)cc1)C(C)C the “hERG current change (%, negative = inhibition) at 1uM” value was 3.79%. In the case of CCCc1nc([N+](=O)[O-])c(S(=O)(=O)c2ccccc2)n1CC(C)C, the “hERG current change (%, negative = inhibition) at 1uM” value is reported as 12.8%. O=C(Nc1ccccc1Br)C1CCCN1S(=O)(=O)c1cccc2nsnc12 (stereo not drawn) was tested, and the “hERG current change (%, negative = inhibition) at 1uM” value was 6%. For Cc1cccc(N2C(=O)/C(=C/c3cccnc3)SC2=S)c1, the “hERG current change (%, negative = inhibition) at 1uM” value was 16.8%. In the case of Cc1ccccc1NC(=S)NNc1ncc(C(F)(F)F)cc1Cl, the “hERG current change (%, negative = inhibition) at 1uM” value is reported as 10.2%. For CC(C)CCN1CCN(Cc2ccon2)CC1CCO (stereo not drawn), the “hERG current change (%, negative = inhibition) at 1uM” value was 0.787%. Cc1nnc(SCCn2c(Br)nc3c2c(=O)n(C)c(=O)n3C)s1 was tested, and the “hERG current change (%, negative = inhibition) at 1uM” value was 3.38%. With Cc1cc(NC(=O)CSc2nnc(-c3cccs3)n2N)no1 the “hERG current change (%, negative = inhibition) at 1uM” value was 7.87%. With O=[N+]([O-])c1ccc(-c2cc(-c3ccc(Cl)cc3)n[nH]2)cc1 the “hERG current change (%, negative = inhibition) at 1uM” value was -2.59%. With O=C(c1cc2cc([N+](=O)[O-])ccc2oc1=O)n1cccn1 the “hERG current change (%, negative = inhibition) at 1uM” value was 4.15%. In the case of OC(COc1ccc2ccccc2c1Br)Cn1ccnc1 (stereo not drawn), the “hERG current change (%, negative = inhibition) at 1uM” value is reported as -2.77%. In the case of Cc1ccc(NC(=O)c2cccnc2C(=O)O)nc1, the “hERG current change (%, negative = inhibition) at 1uM” value is reported as 7.25%. CN1C[C@H](C(=O)N[C@]2(C)O[C@@]3(O)[C@@H]4CCCN4C(=O)[C@H](Cc4ccccc4)N3C2=O)CC2c3cccc4[nH]cc(c34)C[C@H]21.CS(=O)(=O)O (stereo partly drawn) was tested, and the “hERG current change (%, negative = inhibition) at 1uM” value was 1.02%. For COc1ccc(NC(=O)c2cc3n(n2)C(C(F)(F)F)CC(c2ccc(OC)cc2)N3)cc1 (stereo not drawn), the “hERG current change (%, negative = inhibition) at 1uM” value was 10.2%. With CC[C@@]1(c2ccccc2C)C(=O)N(C(=O)OC)N1C(=O)OC the “hERG current change (%, negative = inhibition) at 1uM” value was 16.9%. For CN(C)CCCN(C(=O)CCc1ccccc1)c1nc2ccc(Br)cc2s1.Cl, the “hERG current change (%, negative = inhibition) at 1uM” value was 10.7%. For COc1ccc(C(=O)NC(=S)N2CCCCC2c2cccnc2)cc1OC (stereo not drawn), the “hERG current change (%, negative = inhibition) at 1uM” value was -8.95%. O=C(CN1C(=O)c2cccc3cccc(c23)C1=O)N1CCOCC1 was tested, and the “hERG current change (%, negative = inhibition) at 1uM” value was 8.88%. For Cn1c(SCC(=O)NC2(C#N)CCCCC2)nnc1-c1cccnc1, the “hERG current change (%, negative = inhibition) at 1uM” value was 7.68%. For Cc1ccc(NC(=O)CN(C)C(=O)COc2cccc3cccnc23)cc1, the “hERG current change (%, negative = inhibition) at 1uM” value was 13.2%. For Cc1cccc(NC(=O)C2CC(=O)N/C(=N/N=C/c3ccco3)S2)c1 (stereo not drawn), the “hERG current change (%, negative = inhibition) at 1uM” value was 9.65%. For O=C1CSC(=O)N1CC(O)COc1ccc(Cl)cc1 (stereo not drawn), the “hERG current change (%, negative = inhibition) at 1uM” value was -5.87%. In the case of O=[N+]([O-])c1nn(-c2ccc3c(c2)OCCO3)n(O)c1=Nc1ccc(Cl)cc1, the “hERG current change (%, negative = inhibition) at 1uM” value is reported as 13.6%. In the case of Cc1ccc(S(=O)(=O)N(C)c2ccc(OC(=O)CN3C(=O)NC4(CCCC4)C3=O)cc2)cc1C, the “hERG current change (%, negative = inhibition) at 1uM” value is reported as 7.91%. In the case of O=C1C(=O)N(Cc2ccco2)C(c2cccc(Cl)c2)/C1=C(\O)c1ccc2c(c1)OCCO2 (stereo not drawn), the “hERG current change (%, negative = inhibition) at 1uM” value is reported as 14.9%. With Cc1ccc(C)c2[nH]c(=O)c(CCNC(=O)Cc3cccs3)cc12 the “hERG current change (%, negative = inhibition) at 1uM” value was 3.36%. COc1ccc(NC(C)=O)cc1S(=O)(=O)N1CCc2ccccc21 was tested, and the “hERG current change (%, negative = inhibition) at 1uM” value was 7.93%. For O=C(Nc1ccc(F)c(F)c1)c1ccc(F)c(S(=O)(=O)N2CCC3(CC2)OCCO3)c1, the “hERG current change (%, negative = inhibition) at 1uM” value was 10.4%. O=C(COC(=O)c1cc(NS(=O)(=O)c2cccs2)ccc1O)Nc1ccccc1 was tested, and the “hERG current change (%, negative = inhibition) at 1uM” value was 11.5%. For CCN(Cc1nc(-c2ccccc2)no1)C(=O)c1ccc2c(c1)OCO2, the “hERG current change (%, negative = inhibition) at 1uM” value was 11.2%.

Reference: paper PMC4336329 (PLoS ONE, 2015)
